# Measured values: PubChem BioAssay AID1645882 (National Center for Advancing Translational Sciences (NCATS), 2021)
# Out of some 16,000 compounds screened, about 120 (0.75%) were called active. About 4% were inconclusive and are not listed. Calls follow the shape of the dose curve; as a rule, active = well fitted inhibition curve with a large enough effect; inconclusive = small, poorly fitted or top-dose-only effect; inactive = no such curve, though single readings can be large or run the other way. Some of the results follow.
# Target: Rap guanine nucleotide exchange factor 3 (Homo sapiens) (UniProt O95398)
# Test: Validation qHTS for antagonist of cAMP-regulated guanine nucleotide exchange factor 3 (EPAC1); also: nearly all actives have a fitted effect of over 75% in size;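 as to activity change, negative = inhibition: plate controls were DMSO for no effect and ATA control for full effect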
# Conditions: EPAC1 Rap1B-BODIPY-GDP exchange, fluorescence; series mostly up to 150 µM; activity change, negative = inhibition: at the top concentration
# In short: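 Nucleotide exchange followed as fluorescence loss when BODIPY-GDP leaves Rap1B (480 nm excitation, 540 nm emission), read at 5 min intervals over 30 min. Reaction: 100 nM EPAC1, 250 nM RAP1B-BODIPY-GDP, 50 uM GDP; ATA and DMSO define normalization.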
# Potency is read from the fitted curve at half-maximal effect.
# UniProt O95398, sequence (O95398 whole entry, looked up): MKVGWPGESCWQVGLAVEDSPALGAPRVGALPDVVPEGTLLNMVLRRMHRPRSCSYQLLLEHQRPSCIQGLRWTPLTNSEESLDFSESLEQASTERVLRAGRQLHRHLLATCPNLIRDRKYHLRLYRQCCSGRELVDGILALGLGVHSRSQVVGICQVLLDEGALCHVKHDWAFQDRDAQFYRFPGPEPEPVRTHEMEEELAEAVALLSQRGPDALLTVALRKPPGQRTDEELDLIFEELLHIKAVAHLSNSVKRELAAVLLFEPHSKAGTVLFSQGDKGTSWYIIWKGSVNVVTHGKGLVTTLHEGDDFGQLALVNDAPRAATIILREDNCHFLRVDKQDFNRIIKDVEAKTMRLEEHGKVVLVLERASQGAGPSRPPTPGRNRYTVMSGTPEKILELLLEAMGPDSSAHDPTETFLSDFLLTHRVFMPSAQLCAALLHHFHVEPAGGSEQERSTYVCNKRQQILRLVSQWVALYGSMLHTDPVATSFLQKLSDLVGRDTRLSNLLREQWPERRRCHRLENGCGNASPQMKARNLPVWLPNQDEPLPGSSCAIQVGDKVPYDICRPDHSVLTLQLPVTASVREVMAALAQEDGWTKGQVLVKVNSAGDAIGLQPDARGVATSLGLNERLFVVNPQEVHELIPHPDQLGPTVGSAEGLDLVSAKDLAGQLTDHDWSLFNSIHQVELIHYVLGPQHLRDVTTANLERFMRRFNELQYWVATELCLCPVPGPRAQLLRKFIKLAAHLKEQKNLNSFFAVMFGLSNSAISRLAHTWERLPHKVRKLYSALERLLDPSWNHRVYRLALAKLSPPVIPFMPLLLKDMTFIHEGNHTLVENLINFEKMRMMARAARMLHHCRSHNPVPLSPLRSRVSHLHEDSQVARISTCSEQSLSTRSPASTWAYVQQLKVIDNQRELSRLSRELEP
SMILES,"activity change, negative = inhibition",Potency
c1cc2cc(-c3c(-c4ccc5c(c4)OCO5)noc3-c3ccsc3)ccc2[nH]1,inactive: -9.47%,–
CCC1CN(CCC(=O)N2CCCN(C(=O)c3ccco3)CC2)Cc2cc(OC)ccc2O1 (stereo unspecified),inactive: 27.4%,–
COc1ccc2c(c1)CCC1C2CC[C@@]2(C)C(O)CCC12 (stereo partly specified),inactive: 13.4%,–
CN1CCC(OC(=O)C(Oc2ccc(Cl)cc2)Oc2ccc(Cl)cc2)CC1,inactive: 9.93%,–
CC(C)OC(=O)OCOP(=O)(CO[C@H](C)Cn1cnc2c(N)ncnc21)OCOC(=O)OC(C)C,inactive: 12.7%,–
CN(C)C(=O)/N=N/C(=O)N(C)C,inactive: -1.37% [at 75.8 µM],–
CCNc1ncc2ncc(=O)n(C)c2n1,inactive: 5.2%,–
Cc1ccc(S(=O)(=O)NC(=O)N[C@@H](C)Cc2ccccc2)cc1,inactive: 14.6%,–
Nc1cc(Cl)c(NC2=NCCN2)c(Cl)c1,inactive,–
C[C@@]12CCC[C@H]1[C@@H]1CC[C@H]3C[C@@H](O)CC[C@]3(C)[C@H]1CC2,inactive: 0.626%,–
Cc1ccccc1-c1nc(Nc2ccncc2)c2ccccc2n1,inactive: 13.2%,–
Cn1nc(C(=O)NCCN2Cc3ccccc3OC(c3ccsc3)C2)c2ccccc2c1=O (stereo unspecified),inactive: 7.27%,–
O=C1[C@H](Cc2ccccc2)NCCCC[C@H](c2ccc(Cl)cc2)N1Cc1ccc(Cl)cc1,inactive: -13.9%,–
OC1(c2cccnc2)CCN(Cc2ccc3c(c2)CN(Cc2cccc(C(F)(F)F)c2)CCO3)CC1,inactive: -10.8%,–
O=C(Nc1ccc(Cl)cc1Cl)[C@@H]1CC=C[C@@H]2CCN(C3CC3)C(=O)[C@@H]21,inactive: 5.79%,–
O=C(c1cccc(F)c1F)N1CCOc2ccc(CN3CCC(Oc4cccnc4)CC3)cc2C1,inactive: -3.14%,–
O=C(c1cccc(F)c1)N1CCC2(CC1)CN(c1ccccc1)C2,inactive: 9.74%,–
C=C1c2cccc(O)c2C(O)=C2C(=O)[C@]3(O)C(O)=C(C(N)=O)C(=O)[C@@H](N(C)C)[C@@H]3[C@@H](O)[C@H]12,–,active: 31.6 µM
COCC(=O)N1CCC2(CC1)CN(c1ccccc1)C2,inactive: 25.9%,–
CC(C)(C)c1ccc(C(=O)C[n+]2cccc(Br)c2)cc1,inactive: 21.9%,–
Cc1ccc2c(c1)CN(CCNC(=O)c1cccc(Cn3cccn3)c1)CC(C)O2 (stereo unspecified),inactive: -2.09%,–
O=C(c1cnccn1)N1CCC[C@@]2(CCN(c3cccc(-c4ccccc4)c3)C2)C1,inactive: -17.7%,–
COCCn1c(=O)c(-c2ccccc2)nc2cnc(OC)nc21,inactive: -6.29%,–
CC(=O)NCCNc1nc(-c2ccccc2C)nc2ccccc12,inactive: 6.7%,–
COCC(=O)Nc1cc(C(=O)N2CC3(C)CC2CC(C)(C)C3)c2c(c1)nc(-c1ccncc1)n2C (stereo unspecified),inactive: -8.81%,–
O=C(O)c1cc2cc(Cc3cccnc3)ccc2o1,inactive,–

SMILES,"activity change, negative = inhibition",Potency
CCCCNC(=O)[C@@H]1CC=C[C@@H]2CCN(CCCC)C(=O)[C@@H]21,inactive: -7.72%,–
CCC1COCCS(=O)(=O)N1Cc1ccccc1F (stereo unspecified),inactive: -11.3%,–
COCCNC(=O)COc1ccc(OCCNC[C@@H](O)COc2ccccc2)cc1,inactive: 1.72%,–
O=C(O)c1cc(N(Cc2ccccc2O)Cc2cc(O)ccc2O)ccc1O,inactive: -9.43%,–
COc1ccccc1CCn1c(=O)c(C)nc2cncnc21,inactive: 18.8%,–
CC1(C)CC2C1CC[C@]1(C)CCC3C(C(=O)O)CC(=O)O[C@]32C1 (stereo partly specified),inactive: -9.02%,–
COc1ccc(-n2c(=O)c(-c3ccc(F)cc3)nc3cncnc32)cc1,inactive: 0.407%,–
CC(=O)C[C@H]1c2ccccc2S(=O)(=O)N1c1ccccc1,inactive: 5.62%,–
COC(=O)N1CCC[C@@]2(CCN(C(c3ccccc3)c3ccccc3)C2)C1,inactive: -1.54%,–
COCC(=O)N1CCC[C@@]2(CCN(c3ccccc3)C2)C1,inactive: -3.78%,–
CCc1cccc(CC)c1NC(=O)CN(CC(=O)O)CC(=O)O,inactive: 6.5% [at 75.8 µM],–
C[N+]1(C)[C@@H]2CC(OC(=O)C(O)(c3cccs3)c3cccs3)C[C@H]1[C@@H]1O[C@@H]12 (stereo partly specified),inactive: 4.19%,–
C=C[C@](C)(O)CCC1C(=C)CCC2[C@@](C)(CO)CCC[C@@]12C (stereo partly specified),inactive: 2.31%,–
CN(CC(=O)O)c1ccc(/C=C2\C=Cc3ccccc32)cc1,inactive,–
CC(=O)OC[C@@]1(O)C[C@]23CCC4c5ccoc5CC[C@@]4(C)C2CCC1C3 (stereo partly specified),inactive: 7.17%,–
N#Cc1cccc(-c2nc3cnc(Oc4cccc(Cl)c4)nc3n(C3CC3)c2=O)c1,inactive: 8.41%,–
Cc1nc(NCc2c(C)nn(C)c2Cl)sc1-c1ccn(CC2COc3ccccc3O2)n1 (stereo unspecified),inactive: 2.4%,–
CCOc1ccc(C(=O)OCCN(CC)CC)cc1,inactive: -4.19%,–
CC1CCN=C(N)S1 (stereo unspecified),inactive: 3.48% [at 75.8 µM],–
CCCCCCCCCCCCCCCC(=O)O,inactive: 26.2%,–
Cc1ncoc1C(=O)N1CCOc2ccc(CN3CCC(Oc4cccnc4)CC3)cc2C1,inactive: 4.52%,–
COc1cc(=O)n2c(c1C(=O)NCc1ccco1)CCN(Cc1ccc3nsnc3c1)CC2,inactive: 18.1%,–
C/C(=C\C(=O)OCCCCCCCCC(=O)O)C[C@@H]1OC[C@H](C[C@@H]2O[C@H]2[C@@H](C)[C@H](C)O)[C@@H](O)[C@H]1O,inactive: 10.4%,–
O=S(=O)(c1ccccc1)N1CCC[C@@]2(CCN(c3ccncc3)C2)C1,inactive: 19.1%,–
CC1O[C@@H](O[C@H]2C(Oc3cc(O)c4c(=O)cc(-c5ccc(O)cc5)oc4c3)OC(CO)C(O)C2O)C(O)C(O)C1O (stereo partly specified),inactive: 8.06%,–
COc1ncc2nc(C)c(=O)n(C)c2n1,inactive: 16.8%,–

SMILES,"activity change, negative = inhibition",Potency
CNc1ncnc2ccc(-c3ccccc3C)cc12,inactive: 11.4%,–
O=c1c(-c2cccs2)nc2cnc(N3CCNCC3)nc2n1CCc1ccccc1,inactive: -0.878%,–
COc1ccc2[nH]cc(CCNc3ncnc4ccc(-c5ccoc5)cc34)c2c1,inactive: -0.401%,–
CC1(C)OC2CC3C4CC(F)C5=CC(=O)CC[C@@]5(C)C4C(O)C[C@@]3(C)[C@]2(C(=O)CO)O1 (stereo partly specified),inactive: 8.09%,–
COc1ncc2nc(-c3cc(F)cc(F)c3)c(=O)n(Cc3cccs3)c2n1,inactive: -1.47%,–
CC/C(=C/c1ccccc1)c1cc(Oc2ccccc2)cc2oc3ccccc3c12,inactive: -25.4%,–
C=C[C@@]1(C)CC(=O)[C@@]2(O)[C@@]3(C)[C@@H](O)CCC(C)(C)[C@@H]3[C@H](OC(=O)CCN(C)C)[C@H](OC(C)=O)[C@@]2(C)O1,inactive: 4.09%,–
O=C(NCc1ccccn1)c1cnn(-c2nccc(-c3cccs3)n2)c1C1CC1,inactive: 13.1%,–
CCCCC/C=C\C/C=C\C/C=C\C/C=C\CCCC(=O)O[C@@H](CO)COCCCCCCCCCCCCCCCC,inactive: 21.6% [at 15.3 µM],–
Cc1cc(-c2ccnc(-n3ncc(C(=O)NCCc4cccnc4)c3C)n2)c(C)s1,inactive: 6.29%,–
CN1CCN(c2ncncc2-c2ccc(N(C)C)cc2)CC1,inactive: 9.3%,–
O=c1oc2cc(O)ccc2s1,inactive: -7.73%,–
NNc1nnc(NN)c2ccccc12,inactive: 6.16%,–
Cc1oc(-c2ccccc2NC(=O)c2ccccc2)nc1CNC(=O)c1c(-c2ccccc2)noc1C,inactive: 0.479%,–
COc1cc2ncnc(Nc3cccc(Cl)c3)c2cc1OC,inactive,–
OCc1nc2ccc(Cl)cc2[nH]1,inactive: 12.5%,–
O=C(c1cccnc1)C1CCCN(Cc2ccc3c(c2)CN(C(=O)c2cccs2)CCO3)C1 (stereo unspecified),inactive: 7.59%,–
CO/N=C(/C(=O)N[C@@H]1C(=O)N2C(C(=O)O)=C(Cn3nnc(C)n3)CS[C@H]12)c1csc(N)n1,inactive: 226%,–
N[C@H](CCC(=O)N[C@H](CSN=O)C(=O)NCC(=O)O)C(=O)O,inactive: 9.06%,–
COc1ccc2cc(CNC3CCS(=O)(=O)C3)c(-c3ccc(OC)c(OC)c3)nc2c1 (stereo unspecified),inactive: 6.02%,–
COc1ccc(Oc2ncc3nc(-c4ccc(Cl)cc4)c(=O)n(C)c3n2)cc1,inactive: -0.348%,–
O=C(O)c1ccccc1O,inactive,–
COc1ccc(-c2nc3cnc(N4CCOCC4)nc3n(C3CC3)c2=O)cc1,inactive: 19.2%,–
Cc1c(O)cc2c(c1C)O[C@](C)(CCC[C@H](C)CCC[C@H](C)CCCC(C)C)CC2,inactive: -11.5%,–
COc1ccc(-c2cccc3c2OC(CNC(=O)c2ccc4c(c2)OCO4)C3)nn1 (stereo unspecified),inactive: 5.4%,–
COCCn1c(=O)c(-c2ccccc2)nc2cnc(N(C)C)nc21,inactive: 14.9%,–

SMILES,"activity change, negative = inhibition",Potency
CC(C)c1nc(N(C)S(C)(=O)=O)nc(-c2ccc(F)cc2)c1/C=C/C(O)CC(O)CC(=O)O (stereo unspecified),inactive: 8.87%,–
CCOC(=O)c1cnc2c(cnn2CC)c1NN=C(C)C,inactive,–
C[C@@H]1C[C@H]2[C@@H]3CCC4=CC(=O)C=C[C@]4(C)[C@@]3(Cl)[C@@H](O)C[C@]2(C)[C@@]1(OC(=O)c1ccco1)C(=O)CCl,inactive: 7.4% [at 75.8 µM],–
COc1ccc(-n2c(=O)c(-c3cc(F)cc(F)c3)nc3cnc(N4CCNCC4)nc32)cc1,inactive: 9.62%,–
CN1CCCN(C(c2ccccc2)c2ccc(Cl)cc2)CC1 (stereo unspecified),inactive: 14.5%,–
CCOC(=O)[C@H](CCc1ccccc1)N[C@@H](C)C(=O)N1C(=O)N(C)C[C@H]1C(=O)O,inactive: 3.42%,–
COCCn1c(=O)c(C)nc2cncnc21,inactive: 16.7%,–
CNc1nc(-c2ccccc2C)nc2ccccc12,inactive: -8.15%,–
O=C(O)[C@H](CC(=O)N1C[C@H]2CCCC[C@H]2C1)Cc1ccccc1,inactive: 22.6%,–
N[C@H](C(=O)O)c1ccc(O)cc1,inactive: 4.08%,–
CN1CCN(c2ncc3nc(-c4cccc(C#N)c4)c(=O)n(C[C@H]4CCCO4)c3n2)CC1,inactive: 5.76%,–
CC(C)(CO)NC(=O)c1cnn(-c2ncc3c(n2)-c2ccccc2CC3)c1C1CC1,inactive: -12.3%,–
CCOc1ccc2nc(S(N)(=O)=O)sc2c1,inactive: 3.86%,–
Nc1ncnc2c1ncn2C1OC(COP(=O)(O)O)C(O)C1O (stereo unspecified),inactive: 13.4%,–
O=C(c1cnccn1)N1CCC2(CC1)CN(Cc1cc(C(F)(F)F)cc(C(F)(F)F)c1)C2,inactive: -9.25%,–
CN(C)c1ccc(-c2nccc(NCCN3CCOCC3)n2)cc1,inactive: 9.12%,–
CN(C)C(=O)c1ccc(-c2cc(NCc3cccs3)ncn2)cc1,inactive: 8.09%,–
NCCCCNS(=O)(=O)c1ccc2c(Cl)cccc2c1,inactive: 3.49%,–
CSc1nnc(CCNC(=O)c2ccccc2C(F)(F)F)n1-c1ccc(F)cc1,inactive: 26.2%,–
CCc1c(C)c2ccccc2[nH]c1=O,inactive: 24.8%,–
O=C(NCc1ccon1)c1ccc(-c2csc3ccccc23)nc1N1CCC(N2CCCC(CO)C2)CC1 (stereo unspecified),inactive: 22.8%,–
Cn1c(=O)c(-c2ccc(F)cc2)nc2cnc(N3CCOCC3)nc21,inactive: 1.1%,–
COc1ccc(-n2c(=O)c(-c3cccs3)nc3cnc(N4CCN(C)CC4)nc32)cc1,inactive: 11.9%,–
